Among the data in the supplement of paper PMC9938546 are HCT116-GFP viability values, retold here.

Where a name gives a salt, the structure may show the parent alone. Some of the results follow. Many values rest on one well or one pass, so single values are uncertain.
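Also: viability estimated indirectly by image-based GFP quantification with live-cell imaging of the constitutively GFP-expressing human colorectal cancer line, no immune cells added.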

The test relates to HCT116-GFP. Briefly: HCT116-GFP viability (GFP intensity) relative to untreated control, monoculture; higher = less cancer cell killing. As to conditions: culture: HCT116-GFP monoculture; 10 µM; 72 h.
Regarding `O=C(Nc1cccc2c(=O)cc(-c3nnn[nH]3)oc12)c1ccc(OCCCCc2ccccc2)cc1` [Pranlukast], the HCT116-GFP viability was found to be 91.9%. As to `CC(C)(C)NC[C@H](O)COc1nsnc1N1CCOCC1` [Timolol maleate salt], the HCT116-GFP viability is 96.5%. `CCOC(=O)[C@H](CCc1ccccc1)N[C@H]1CCc2ccccc2N(CC(=O)O)C1=O` [Benazepril hydrochloride]: the HCT116-GFP viability was 102%. Next, `COC1=C(OC)C(=O)C(CCCCCCCCCCO)=C(C)C1=O` [Idebenone]: 75.2%; `CCOC(=O)OC(C)OC(=O)[C@@H]1N2C(=O)[C@@H](NC(=O)[C@H](N)c3ccccc3)[C@H]2SC1(C)C` (stereo partly specified) [Bacampicillin hydrochloride]: 100%. As for `CC[C@H]1OC(=O)[C@H](C)[C@@H](O[C@H]2C[C@@](C)(OC)[C@@H](O)[C@H](C)O2)[C@H](C)[C@@H](O[C@@H]2O[C@H](C)C[C@H](N(C)C)[C@H]2O)[C@](C)(O)C[C@@H](C)/C(=N\OCOCCOC)[C@H](C)[C@@H](O)[C@]1(C)O` [Roxithromycin], the HCT116-GFP viability was determined as 92.1%. For `Nc1nc(F)nc2c1ncn2[C@@H]1O[C@H](CO)[C@@H](O)[C@@H]1O` [Fludarabine], the HCT116-GFP viability was 61.5%. In the case of `CC(=O)N[C@@H](CC(C)C)C(=O)O` [N-Acetyl-L-leucine], the HCT116-GFP viability was determined as 114%. As for `Nc1nc(=O)c2nc(CNc3ccc(C(=O)N[C@@H](CCC(=O)O)C(=O)O)cc3)cnc2[nH]1` [Folic acid], the HCT116-GFP viability was determined as 99.9%.

In the case of `CC(C)C(=O)OCC(=O)[C@@]12O[C@H](C3CCCCC3)O[C@@H]1C[C@H]1[C@@H]3CCC4=CC(=O)C=C[C@]4(C)[C@H]3[C@@H](O)C[C@@]12C` [Ciclesonide], the HCT116-GFP viability came to 31.3%. The value for `O=C1CN2Cc3c(ccc(Cl)c3Cl)N=C2N1` [Anagrelide] was 99.8%.

Take `Nc1nc(=S)c2ncn([C@@H]3O[C@H](CO)[C@@H](O)[C@H]3O)c2[nH]1` [Thioguanosine]: the HCT116-GFP viability worked out at 41%.

`CC(C)NCC(O)COc1ccc(COCCOC(C)C)cc1` (stereo unspecified) [Bisoprolol fumarate]: the HCT116-GFP viability was 104%.

On to `CO[C@H]1/C=C/O[C@@]2(C)Oc3c(C)c(O)c4c(c3C2=O)C2=NC3(CCN(CC(C)C)CC3)NC2=C(NC(=O)/C(C)=C\C=C\[C@H](C)[C@H](O)[C@@H](C)[C@@H](O)[C@@H](C)[C@H](OC(C)=O)[C@@H]1C)C4=O` [Rifabutin], for which the HCT116-GFP viability is 106%. For `O=C(Cn1ccnc1[N+](=O)[O-])NCCO` [Etanidazole], the HCT116-GFP viability is 138%. The value for `CN(C)CCN(Cc1cccs1)c1ccccn1` [Methapyrilene hydrochloride] was 97.2%; that for `COc1c(O[C@@H]2O[C@H](CO)[C@@H](O)[C@H](O)[C@H]2O)cc2c(c1OC)-c1ccc(SC)c(=O)cc1[C@@H](NC(C)=O)CC2` [Thiocolchicoside] was 87.4%; that for `Clc1ccc(C(Cn2ccnc2)OCc2c(Cl)cccc2Cl)c(Cl)c1` (stereo unspecified) [Isoconazole] was 63.3%. Next, `NC(=O)N1c2ccccc2C=Cc2ccccc21` [Carbamazepine]: 85.2%; `O=C1CC2(CCCC2)CC(=O)N1CCCCN1CCN(c2ncccn2)CC1` [Buspirone hydrochloride]: 82.6%; `CC[C@H]1OC(=O)[C@H](C)[C@@H](O[C@H]2C[C@@](C)(OC)[C@@H](O)[C@H](C)O2)[C@H](C)[C@@H](O[C@@H]2O[C@H](C)C[C@H](N(C)C)[C@H]2O)[C@](C)(O)C[C@@H](C)[C@@H]2N[C@@H](COCCOC)O[C@H]([C@H]2C)[C@]1(C)O` [Dirithromycin]: 97.1%. Next, `C[C@H](O)C(=O)Nc1c(I)c(C(=O)NC(CO)CO)c(I)c(C(=O)NC(CO)CO)c1I` [Iopamidol]: 101%.

`CC(C)CC(=O)N[C@H](C(=O)N[C@H](C(=O)N[C@@H](CC(C)C)[C@@H](O)CC(=O)N[C@@H](C)C(=O)N[C@@H](CC(C)C)[C@@H](O)CC(=O)O)C(C)C)C(C)C` [Pepstatin A]: the HCT116-GFP viability worked out at 90.4%. As for `Nc1ccc(S(=O)(=O)Nc2ccnn2-c2ccccc2)cc1` [Sulfaphenazole], the HCT116-GFP viability turned out to be 93.5%. `CO/N=C(\C(=O)N[C@@H]1C(=O)N2C(C(=O)O)=C(COC(N)=O)CS[C@H]12)c1ccco1` [Cefuroxime sodium salt]: the HCT116-GFP viability came out at 97.2%. For `O=C(NCC(O)CO)c1c(I)c(C(=O)NCC(O)CO)c(I)c(N(CCO)C(=O)CO)c1I` (stereo unspecified) [Ioversol], the HCT116-GFP viability came to 104%. As to `CC1Cc2ccccc2N1NC(=O)c1ccc(Cl)c(S(N)(=O)=O)c1` (stereo unspecified) [Indapamide], the HCT116-GFP viability was 95%. In the case of `Cc1cc(CC(=O)O)n(C)c1C(=O)c1ccc(Cl)cc1` [Zomepirac sodium salt], the HCT116-GFP viability came out at 95.3%.

In the case of `O=C(O)COC(=O)Cc1ccccc1Nc1c(Cl)cccc1Cl` [Aceclofenac], the HCT116-GFP viability turned out to be 112%. Next, `Cc1cnc(NC(=O)C2=C(O)c3ccccc3S(=O)(=O)N2C)s1` [Meloxicam]: 97.7%; `CC1CC(OC(=O)C(O)c2ccccc2)CC(C)(C)N1C` (stereo unspecified) [Eucatropine hydrochloride]: 96.3%. The value for `Cc1nnc(NS(=O)(=O)c2ccc(N)cc2)s1` [Sulfamethizole] was 102%. The value for `CCN1CCN(c2cc3c(cc2F)c(=O)c(C(=O)O)cn3C2CC2)CC1` [Enrofloxacin] was 79.5%. Turning to `CCN1CCC[C@H]1CNC(=O)c1c(OC)ccc(Br)c1OC` [Remoxipride Hydrochloride], the HCT116-GFP viability worked out at 99.9%. Turning to `Oc1ccc(OCc2ccccc2)cc1` [Monobenzone], the HCT116-GFP viability was 88.8%.

For the compound `C[C@H]1C[C@H]2[C@@H]3CCC4=CC(=O)C=C[C@]4(C)[C@@]3(F)[C@@H](O)C[C@]2(C)[C@@]1(O)C(=O)CO` [Betamethasone], the HCT116-GFP viability amounted to 103%. With `CCN1CCN(C(=O)N[C@@H](C(=O)N[C@@H]2C(=O)N3C(C(=O)O)=C(CSc4nnnn4C)CS[C@H]23)c2ccc(O)cc2)C(=O)C1=O` [Cefoperazone dihydrate], the HCT116-GFP viability was 94.8%. Turning to `CN(C)CCOc1ccc(/C(=C(/CCCl)c2ccccc2)c2ccccc2)cc1` [Toremifene], the HCT116-GFP viability worked out at 82.1%. Next, `COC(=O)Nc1nc2ccc(SC(C)C)cc2[nH]1` [Methiazole]: 14%. Next, `C=C1/C(=C\C=C2/CCC[C@]3(C)[C@@H]([C@H](C)/C=C/[C@@H](O)C4CC4)CC[C@@H]23)C[C@@H](O)C[C@@H]1O` [Calcipotriene]: 67.1%; `Cc1ccc(Cl)c(Nc2ccccc2C(=O)O)c1Cl` [Meclofenamic acid sodium salt monohydrate]: 91.6%.
